Measured values reported in PubChem BioAssay AID686970 (National Center for Advancing Translational Sciences (NCATS), 2013).
The whole screen tested about 360,000 compounds, of which about 6,000 (1.7%) were called active. Inconclusive results, whose numbers are uncertain, are shown with a selection of clear calls. Calls follow the shape of the dose curve; as a rule, active = well fitted cell-killing curve with a large enough effect; inconclusive = small, poorly fitted or top-dose-only effect, or effect the other way; inactive = flat fitted curve, though single readings scatter. No potency is given beside an inconclusive call; the fits are too rough.

Assay: qHTS for induction of synthetic lethality in tumor cells producing 2HG: qHTS for the HT-1080-NT fibrosarcoma cell line; also: nearly all actives have a fitted effect of over 55% in size
Conditions: HT-1080-NT fibrosarcoma viability, CellTiter-Glo ATP luminescence, 48 h; activity, negative = less viability: at 46.1 µM (top of the series) unless noted
Description: Unbiased genomic sequencing for 22 glioma genomes found recurrent mutation of IDH1 on chromosome 2q33, a gene encoding the cytosolic isoform of IDH1 associated with the tricarboxylic acid cycle (TCA) that catalyzes the oxidative decarboxylation of isocitrate, yielding alpha-ketoglutarate and CO2 via NADP+ to NADPH conversion. Subsequent studies confirmed the recurrent IDH mutations in up to 70% of secondary gliomas and in 10% of AML cases. In addition, the somatic mutation of cancer-associated IDH1 is a point mutation resulting in various amino-acid substituents at Arginine132 (IDH1 R132), a key residue found in the enzyme's active site that when mutated, results in the loss-of-function in metabolizing isocitrate but confers a gain-of-function to produce the oncometabolite 2-hydroxyglutarate (2HG). This in effect defines IDH1 as an oncogene and provides an extraordinary opportunity to discover chemical probes against mutant IDH1 that may translate into much needed new therapies for glioma and AML patients.
This assay aims to perform a synthetic lethal screen for chemical probes specific for 2HG-producing tumor cells using matched paired cell lines (1) HT-1080-NT fibrosarcoma cell line that overproduces 2HG and (2) HT-1080-IDH1KD cell line which has IDH1 expression knocked-down. Desirable compounds are toxic to the NT fibrosarcoma cells but not to the IDH1KD cell line. The data in this AID corresponds to the results of the qHTS against the HT-1080-NT fibrosarcoma cell line.
[1] Dang L, Jin S, Su SM. IDH mutations in glioma and acute myeloid leukemia. Trends of Mol Med. 2010; 16(9): 387-97.
[2] Dang L et al. Cancer-associated IDH1 mutations produce 2-hydroxyglutarate. Nature. 2010; 465(7300):966.
NIH Molecular Libraries Probe Production Centers Network [MLPCN]
NIH Chemical Genomics Center [NCGC]
Assay Submitter (PI): Lenny Dang Ph.D., Agios Pharmaceuticals
Suspensions of trypsinized HT-1080-NT cells were dispensed into white, tissue culture-treated, solid 1536-well plates at 5uL/well (750 cells/well final concentration) in RPMI medium supplemented with 5% FBS. Plates were incubated at 37 degrees C for 2 hours, after which 23 nL of compounds or DMSO were delivered to each well using a pin tool. Plates were then incubated at 37 degrees C for an additional 48 hours. CellTiter-Glo viability reagent (Promega) was dispensed into wells (2.5uL/well) and incubated at room temperature for 10 minutes. The plates were measured on a PerkinElmer ViewLux plate reader for luminescent signal (clear filter, 1 sec exp). DMSO-treated control wells and media-only (no cells) control wells were used to normalize %Activity of identified toxic compounds; DMSO-treated wells corresponded to 0%Activity (100% viability), while media-only controls were used to normalize 100%Activity (0% viability).
Concentration-response curves were fitted to the signals arising from the resulting luminescence. The concentration-effect curves were then classified based on curve quality (r2), response magnitude and degree of measured activity, and compounds were subsequently categorized based on their curve class.
Potency is read from the fitted curve at half-maximal effect; tags tell the direction and shape of the fitted curve.

Compound	Potency	activity, negative = less viability
COc1ccc(C2=NOC(C(=O)NCc3ccc(F)cc3)C2)cc1OC (stereo not given)	active: 1.26 µM	–
CC(C)(C)c1ccc(OCC(O)CN2CCc3ccccc3C2)cc1 (stereo not given)	inconclusive [cytotoxic, single point]	–
Cc1ccccc1OCC1Cn2c(nc3c2c(=O)[nH]c(=O)n3C)O1 (stereo not given)	inactive	–
O=C(Cn1nnc(-c2ccccc2Cl)n1)Nc1cccc(S(=O)(=O)N2CCCC2)c1	inconclusive [cytotoxic, single point]	–
COc1cccc(N(C(=O)CCl)C(C(=O)NCCc2ccccc2)c2cccs2)c1 (stereo not given)	active: 1.64 µM	–
COc1ccc(CC(=O)Nc2cccc(-c3nnc(-c4ccc(C)cc4)o3)c2)cc1OC	inconclusive [cytotoxic, single point]	–
Cc1nn(C)cc1CN1CCCC(C(=O)c2ccc(-c3ccccc3)cc2)C1 (stereo not given)	inconclusive [cytotoxic, single point]	–
O=C(N/N=C/c1ccc([N+](=O)[O-])o1)c1cc(-c2cccc(Br)c2)nc2ccccc12	inconclusive [cytotoxic, single point]	–
O=C(c1cc(C2CC2)nn1-c1ccccc1)N1CCN(S(=O)(=O)c2c(F)cccc2F)CC1	inactive	–
Cc1cccc(C)c1NC(=O)c1ccc(-c2cc(F)ccc2F)o1	inconclusive [cytotoxic, single point]	–
CCN1CC(CN(C)Cc2nc(-c3ccc(Cl)cc3)no2)CC1=O (stereo not given)	inconclusive [cytotoxic, single point]	–
COc1cccc(F)c1C(C[N+](=O)[O-])c1c(N)n(C)c(=O)n(C)c1=O (stereo not given)	active: 10.3 µM	–
CCC(C)c1ccc(NC(=O)Nc2cccnc2)cc1 (stereo not given)	inconclusive [cytotoxic, single point]	–
COC(=O)CC(c1ccc(C(C)C)cc1)n1cccc1 (stereo not given)	inconclusive [cytotoxic, single point]	–
Cc1cccc(/C=c2\s/c(=C\C(=O)C(C)(C)C)[nH]c2=O)c1	inconclusive [cytotoxic, partial curve]	–
O=C(c1ccco1)N1CCC(c2nc3c(nnn3Cc3ccc(F)cc3)c(=O)[nH]2)CC1	inactive	–
CCCCCCSc1nc2c(c(=O)[nH]c(=O)n2C)n1C	inconclusive [rising, single point]	–
Cc1ccc(Cc2c(C3CCCCC3)nc3ccc(C)cn23)cc1	inconclusive [cytotoxic, single point]	–
O=C(Nc1ccccc1)c1ccc2nc(-c3ccco3)c(-c3ccco3)nc2c1	inconclusive [cytotoxic, single point]	–
Cc1cc(C)cc(NC(=O)Nc2ccc(-n3ccc(C(F)(F)F)n3)cc2)c1	active: 20.6 µM	–
O=C(NCc1cccnc1)c1ccc(NC(=O)c2ccc([N+](=O)[O-])cc2)cc1	inconclusive [cytotoxic, single point]	–
O=C(CCc1ccc(S(=O)(=O)NCc2ccccc2)cc1)N1CCN(Cc2ccc3c(c2)OCO3)CC1	inactive	–
Cc1ccc(NC(=O)c2ccc3c(c2)CCN3S(C)(=O)=O)cc1C	inactive	–
CCn1c(C)cs/c1=N\C(=S)Nc1ccccc1C	inactive	–

Compound	Potency	activity, negative = less viability
COc1cccc(CNc2nc(-c3cccnc3)nc3ccccc23)c1	inconclusive [cytotoxic, single point]	–
COc1cc(Br)cc(/C=N/NC(=O)Cc2ccccc2)c1O	active: 18.4 µM	–
O=C(NCc1ccc(Cl)cc1)c1cc2ccccn2n1	inconclusive [rising, single point]	–
CC(=O)c1cn(CCOc2ccc(F)cc2)c2ccccc12	inconclusive [cytotoxic, single point]	–
Cc1[nH]n(-c2nc(-c3ccc(Cl)cc3)cs2)c(=O)c1N=Nc1ccc(O)cc1	–	inconclusive: -13.3% [cytotoxic]
COc1cccc2sc3cc(NCc4ccc5c(c4)OCO5)ccc3c(=O)c12	inactive	–
O=C(Cn1cnc2c(OCc3ccccc3)ncnc21)N[C@H](CO)Cc1cc2ccccc2[nH]1	inactive	–
Cc1cc(NC(=O)C(Cl)c2ccccc2)no1 (stereo not given)	inconclusive [cytotoxic, partial curve]	–
CCOC(=O)c1cnc(-n2nc(C)cc2C)nc1NCc1ccccc1	inactive	–
COc1ccc(NC(=O)CNS(=O)(=O)c2ccc(Cl)cc2)cc1OC	inactive	–
O=C(Nc1ccn(-c2ccccc2)n1)c1ccc(S(=O)(=O)N2CCCCCC2)cc1	–	inconclusive: -32% [cytotoxic]
O=C(CCCCCN1C(=O)c2cccc3cccc(c23)C1=O)NCc1cccnc1	active: 2.91 µM	–
COc1ccc(C(=O)Nc2cccc(-c3csc(C)n3)c2)cc1S(=O)(=O)N1CCCC1	inconclusive [cytotoxic, single point]	–
CN(C)c1ccc(C=c2c3cc(O)ccc3n3c2cc(-c2ccccc2)[n+]3C)cc1	inactive	–
CC(=O)Nc1ccc(NC2=C/C(=N/S(=O)(=O)c3cccs3)c3ccccc3C2=O)cc1	active: 16.4 µM	–
C[C@@H]1C[C@H]2[C@@H]3CCC4=CC(=O)C=C[C@]4(C)[C@@]3(F)[C@@H](O)C[C@]2(C)[C@@]1(O)C(=O)CO	inconclusive [rising, full curve, poor fit]	–
Cc1ccc(NC(=O)CCC(=O)N/N=C/c2ccc(O)cc2O)cc1	inconclusive [cytotoxic, single point]	–
CCCCn1nnnc1C(c1ccccc1)N1CCN(C/C=C/c2ccccc2)CC1 (stereo not given)	inconclusive [cytotoxic, single point]	–
CC1CCc2nc(NC(=O)CSc3nc4ccccc4o3)sc2C1 (stereo not given)	inconclusive [cytotoxic, single point]	–
Cc1ncsc1C(=O)N1CCCC(C(=O)c2ccc3ccccc3c2)C1 (stereo not given)	inactive	–
CCCCCn1c(SCCC(C)C)nc2c1c(=O)[nH]c(=O)n2C	inconclusive [cytotoxic, single point]	–
CCn1c(=S)[nH]c2cc(S(=O)(=O)N3CCCCC3)ccc21	inconclusive [cytotoxic, single point]	–
C=CCOc1ccc(/C=N/NC(=O)c2cc3c(OC)cc(OC)cc3[nH]2)cc1	inconclusive [cytotoxic, single point]	–
O=C(Cc1cc2ccccc2o1)NCc1ccc(F)cc1	inconclusive [cytotoxic, single point]	–

Compound	Potency	activity, negative = less viability
CC(=O)OCC1OC(Sc2cccc3cccnc23)C(OC(C)=O)C(OC(C)=O)C1OC(C)=O (stereo not given)	inconclusive [cytotoxic, single point]	–
N#C/C(=C/c1ccccc1)C(=O)NCc1ccccc1	inactive	–
COc1cc(/C=C(\C#N)C(=O)NC2CCCCC2)ccc1OCc1ccc(C(=O)O)cc1	inconclusive [cytotoxic, single point]	–
CN(C)CCCN(C(=O)c1ccc2c(c1)CCCC2)c1nc2ccc(F)cc2s1	inactive	–
COc1ccccc1CNc1nc(NCc2ccccc2)nc2ccsc12	active: 25.9 µM	–
O=C(OCCN1C(=O)c2cccc3c(N4CCOCC4)ccc(c23)C1=O)c1ccc(Cl)cc1	inconclusive [cytotoxic, full curve]	–
COC(=O)CC1(C(=O)OC)Oc2ccc(Br)cc2C(=O)N1c1ccc(Br)cc1Cl (stereo not given)	active: 14.6 µM	–
c1ccc(C[C@H]2CN=C(Nc3ccccc3)N2CCCC2CCCC2)cc1	inconclusive [cytotoxic, single point]	–
COc1cc(CN2CC(=O)N(c3ccc(C)c(Cl)c3)C2=S)cc(OC)c1OC	inconclusive [cytotoxic, partial curve, poor fit]	–
CCOc1ccc(CNC(=O)c2ccc(Sc3ccc(C)cc3)c(NC(C)=O)c2)cc1OC	inactive	–
NNC(=O)c1csc(Cc2c(Cl)sc3ccc(Cl)cc23)n1	inactive	–
COCCCN1C(=O)C(=O)/C(=C(/O)c2ccc(C)cc2)C1c1ccccc1 (stereo not given)	inactive	–
COc1ccc(-c2ccc3c(c2)S(=O)(=O)c2cccc(C(=O)NCCOc4ccccc4Cl)c2C3=O)cc1OC	inactive	–
Cc1ccc(Cn2nnc3c(=O)[nH]c(C4CCN(S(=O)(=O)Cc5ccccc5)CC4)nc32)cc1	inconclusive [cytotoxic, partial curve, poor fit]	–
Cc1ccccc1C(=O)Nc1ccc(C(=O)N/N=C/c2ccc(O)cc2)cc1	active: 8.2 µM	–
Cc1ccccc1NC(=O)c1ccccc1O	inconclusive [cytotoxic, single point]	–
O=C(N/N=C/c1cc([N+](=O)[O-])ccc1O)C1CC1	inconclusive [cytotoxic, partial curve, poor fit]	–
COc1ccccc1NC(=S)NC(=O)C(C)(C)C	inconclusive [cytotoxic, single point]	–
CCOC(=O)[C@]12CCCC=C1N(CCC1=CCCCC1)C(=O)[C@H](CC(=O)NCc1ccc(OC)c(OC)c1)C2	inactive	–
O=C1c2c(-c3ccc(Br)cc3)noc2CCN1Cc1cn(-c2ccc(Cl)cc2)nn1	inconclusive [cytotoxic, single point]	–
Cc1cccnc1C(c1ccc(F)cc1)N(C)C(=O)C1CCN(CCOc2ccc(Cl)cc2Cl)CC1 (stereo not given)	–	inconclusive: -80.2%
O=C(CSc1nc(-c2ccccc2)c(-c2ccccc2)[nH]1)NCc1ccco1	inconclusive [cytotoxic, single point]	–
